Measured values: the RNAGym collection of RNA variant scans (doi:10.1093/nar/gkz1192)
The source gives no read counts; variants with many changes may rest on few reads.

B1: CPEB3 Ribozyme (parent)
chain: UAACAGGGGGCCACAGCAGAAGCGUUCACGUCGCAGCCCCUGUCAGAUUCUGGUGAAUCUGCGAAUUCUGCUGUAUAUCUC

Variants of: B1
Assay: self-cleavage, relative activity (ratio to wild type); higher = more cleavage; in vitro, sequencing
How it was run: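 Relative activity compares each variant's cleaved/total read fraction with that of the unmutated ribozyme. To get these fractions, barcoded CPEB3 ribozyme libraries from rounds of error-prone PCR were transcribed with T7 RNA polymerase for 5 hours at 37°C and then given 15 min of DNase I treatment before EDTA was added. The RNAs were reverse transcribed with template switching and sequenced on Illumina, and DNA sequencing linked barcodes to variants. A minimum of 5 reads applied, and three batches were averaged.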

| Variant | self-cleavage |
| --- | --- |
| UAACAGGGGGCCACAGCAGAGGCGUUCAAGUCGCAGCCCCUGUCAGUUUCUAGUGAAUCUGCGAAUUCUGCUGAACAUCUC | 0.14 |
| UAACAGGGGGCCACAGCAGAGGCGUUCAAGUCGCAGACCCUGUCGGGUUCCGGUGAAUCUGCGAAUUCUGCUGUAUAUCUC | 0.05 |
| UAACAGGGGGCCACAGCAGAGGCGUUCAUGUCGCGGCCCCCGUCAGAUUCUGGUGAAUCUGCGAAUUCUGCUGUAUAUCUC | 0.56 |
| UAACAGGGGGCCACAGCAGAGGCGUUCAUGUCGCGGCCCCUGUCAGAUUCUGGUGAAUCGGCGAAUUCUGCUGUAUAUCUC | 0.2 |
| UAACAGGGGGCCACAGCAGAGGCGUUCAUGUCGCUGCCCCUGUCAGGUUCUGGUGAAUCUGCGAAAUCUGCUGUAUAUCUU | 0.04 |
| UAACAGGGGGCCACAGCAGAGGCGUUCAUGUCGCAGCCCCUGUCAGAUUCUGGUGAAUCUGCGAUUCCUGCUGUAUAUCUC | 0.09 |
| UAACAGGGGGCCACAGCAGAGGCGUUCAUGUAGCAGCCCCUGCCGGAUUCUGGUGAAUCUGCGGAUUCUGCUGUAUACCUC | 0.03 |
| UAACAGGGGGCCACAGCAGAGGCGUUCAUGUGGCAGCCCCUGUCAGUUUCUGGUGAAUCUGCGAAUUCUGCCGUAUAUCUC | 0.04 |
| UAACAGGGGGCCACAGCAGAGGCGUUCAUGUCGCAGCACUUGCCAGAUUCAGGUGAAUCUGCGAAUUCUGCUGUAUAUCUC | 0.19 |
| UAACAGGGGGCCACAGCAGAGGCGUUCAUGACGCAGCCCCUGUCAGAUUCUGGUGGAUCUGCGAAUUCUGCUGUAUAUCUC | 0.08 |
| UAACAGGGGGCCACAGCAGAGGCGUUCAUGACGCAGCCCCCGUCAGAUUCUCGUGAAUCUGCGCAUUCUGCUGUAUAUCUC | 0.08 |
| UAACAGGGGGCCACAGCAGAGGCGUUCAUGUCGCAGCCCCGGUCAGAUUCUGGUGAAUCUGCGAGUUCUGCUGUACCUCUC | 0.04 |
| UAACAGGGGGCCACAGCAGAGGCGUUCAUGUCGCAGCCCCUGUCAGAUUCUGGUGAAUCUGCGAAUCCUGCUGUAUACCUC | 0.15 |
| UAACAGGGGGCCACAGCAGAGGCGUUCACGUAGCAGCCCCUGUCAGAUUCUGGUGAAUCUGCGAAUUCUGCUGUAUGUCUC | 0.19 |
| UAACAGGGGGCCACAGCAGAGGCGUUCACGUGGCAGCCCCUGUCAGAUCCUGGUGAAUCUGCGAAUUCUGCUGUAUAUCUC | 0.15 |
| UAACAGGGGGCCACAGCAGAGGCGUUCACGUUGCGGCCCCUGUCAGAUUCUGGUGAAUCUGCGAAUUCUGCUGUAUAUCUC | 0.08 |
| UAACAGGGGGCCACAGCAGAGGCGUUCACGUUGCAGCCCCCGUCAGAUUCUGGUGAAUCUGCGAAUUCCGCUGUAUAUCUC | 0.07 |
| UAACAGGGGGCCACAGCAGAGGCGUUCACGUUGCAGCCCCUGUCAGAUUCUGGAGAAUCUGCGAAUUCUGCUGUAUAUCUC | 0.11 |
| UAACAGGGGGCCACAGCAGAGGCGUUCACGUCGGAGCCCCUGUCAGAUCCUGGUGAAUCUGCGAACUCUGCAGUAUAUCUC | 0.07 |
| UAACAGGGGGCCACAGCAGAGGCGUUCACGUCGGAGCCCCUGUCAGAUUCUGGUGAAUCUGCGAAUUCUGCUGCAUAUCUC | 0.1 |
| UAACAGGGGGCCACAGCAGAGGCGUUCACGUCGUUGCCCCUGUCAGAUUCUGGUGAAUCUGCGCAUUCUGCUGUAUAUCUC | 0.05 |
| UAACAGGGGGCCACAGCAGAGGCGUUCACGUCGUAGCCCCUGUCAGGUUCUGGUGAAUCCGCGAAUUCUGCUGUAUAUCUC | 0.14 |
| UAACAGGGGGCCACAGCAGAGGCGUUCACGUCGUAGCCCCUGUCAGAUUCUGGUGAAUCUGCGUAUUCUGCUGUAUAACUC | 0.04 |

| Variant | self-cleavage |
| --- | --- |
| UAACAGGGGGCCACAGCAGAGGCGUUCACGUCGUAGCCCCUGUCAGAUUCUGGUGAAUCUGCGAGUUCUGCUGUAUAUCUC | 0.18 |
| UAACAGGGGGCCACAGCAGAGGCGUUCACGUCGUAGCCCCUUCCAGAUUCUGGUGAAUCAGCGAAUUCUGCUGUAUAUCUC | 0.12 |
| UAACAGGGGGCCACAGCAGAGGCGUUCACGUCGUAGCCCCUGCCAGGUUCUGGUGAAUCUGCGAAUUCUGCUGUAUAUCUC | 0.14 |
| UAACAGGGGGCCACAGCAGAGGCGUUCACGUCGUAGCCCCUGUCAGACUCUGGUGAAUCUGCGAAUUCUGCUGUAUAUCUC | 0.19 |
| UAACAGGGGGCCACAGCAGAGGCGUUCACGUCGUAGCCCCUGUCAGAUUCUGGCGAAACUGCGAACUCUGCUGUAUAUCUC | 0.06 |
| UAACAGGGGGCCACAGCAGAGGCGUUCACGUCGUAGCCCCUGUCAGAUUCUGGUGAAUCUGCGAAUUCUGCAGUAUAUCUC | 0.07 |
| UAACAGGGGGCCACAGCAGAGGCGUUCACGUCGCAGACCCUGUCAGACCCUGGUGAAUCUGCGAAUUCUGCUGCAUAUCUC | 0 |
| UAACAGGGGGCCACAGCAGAGGCGUUCACGUCGCAGUCCCUGUCAGAUUCUGGUGAAUCUGCGGAUUCUGCUGUAUAUCUC | 0.16 |
| UAACAGGGGGCCACAGCAGAGGCGUUCACGUCGCAGUCCCUGUCAGAUUCUGGCUAAUCUGCGAAUUCUGCUGCAUAUCUC | 0.17 |
| UAACAGGGGGCCACAGCAGAGGCGUUCACGUCGCAGCACCUGUCAGAUUCUGGUGAAUCUGCGAAUUCUGCCGUAUAGCUC | 0.09 |
| UAACAGGGGGCCACAGCAGAGGCGUUCACGUCGCAGCUCCUGUCGGAUUCUGGUGAAUCUACGAACUCUGCUGUAUAUCUC | 0.14 |
| UAACAGGGGGCCACAGCAGAGGCGUUCACGUCGCAGCUCCUGUCUGAUUCUGGUGAAUCUGCGAAUUCUGCUGUAUAUCUC | 0.28 |
| UAACAGGGGGCCACAGCAGAGGCGUUCACGUCGCAGCUCCUGUCAGAUUCUGGCGGAUCUGCGAAUUCUGCUGUAUAUCUC | 0.12 |
| UAACAGGGGGCCACAGCAGAGGCGUUCACGUCGCAGCUCCUGUCAGAUUCUGGUGAAUCGGCGAAUUCUGCUGUAUAUCUC | 0.11 |
| UAACAGGGGGCCACAGCAGAGGCGUUCACGUCGCAGCCGCUGUCAGAUUCUGGUGAAUCCGCGAAUUCUGCUGUAUAUCUC | 0.18 |
| UAACAGGGGGCCACAGCAGAGGCGUUCACGUCGCAGCCGCUGUCAGAUUCUGGUGAAUCUGCGAAUUCCGCCGUAUAUCUC | 0.17 |
| UAACAGGGGGCCACAGCAGAGGCGUUCACGUCGCAGCCUCUGUCAGUUUCUGGUGAGUCUGUGAAUUCUGCUGUAUAUCUC | 0.06 |
| UAACAGGGGGCCACAGCAGAGGCGUUCACGUCGCAGCCUCUGUCAGAUUCUAGUGAAUCUGCGAAUUCUGCAGUAUAUCUC | 0.11 |
| UAACAGGGGGCCACAGCAGAGGCGUUCACGUCGCAGCCUCCGUCAGAUUCUGGGGAAUCUGCGAAUUCUGCUGUAUGUCUC | 0.24 |
| UAACAGGGGGCCACAGCAGAGGCGUUCACGUCGCAGCCUCUGCCAGAUUCUGGUGAAUCUGCGAAUUCUGCUGUAUAUCUC | 0.06 |
| UAACAGGGGGCCACAGCAGAGGCGUUCACGUCGCAGCCUCUGUCAGAUACUGGUGAAUCUGCGAAUUCUGCUGUAUAUCAC | 0.08 |
| UAACAGGGGGCCACAGCAGAGGCGUUCACGUCGCAGCCCAUGUCCGAUUCUGGUGAAUCUGCGAAUUCUGCUGUAUAUCUC | 0.12 |
| UAACAGGGGGCCACAGCAGAGGCGUUCACGUCGCAGCCCAUGCCAGAUACUGGUGACUCUGCGAAUUCUGCUGAAUAUCUC | 0.05 |

| Variant | self-cleavage |
| --- | --- |
| UAACAGGGGGCCACAGCAGAGGCGUUCACGUCGCAGCCCUUGUCGCAUUCUGGUGAAUCUGCGAAUUCUGCCGUAUAUCUC | 0.3 |
| UAACAGGGGGCCACAGCAGAGGCGUUCACGUCGCAGCCCUUGUCAAAUUCUGGUGAAUCUGCGAAUUCUGCUGUAUAUCUC | 0.21 |
| UAACAGGGGGCCACAGCAGAGGCGUUCACGUCGCAGCCCUUGUCAGAUUCAGGUGAAUCUACGAAUUCUGCUGUAUAUCAC | 0.49 |
| UAACAGGGGGCCACAGCAGAGGCGUUCACGUCGCAGCCCUUGUCAGAUUCUGGUGAAUCCGCGAAUUCUGCUGUAUACCUC | 0.06 |
| UAACAGGGGGCCACAGCAGAGGCGUUCACGUCGCAGCCCCUGUGAGAUUCUGGUGAACCUGCGAAUUCUGCUGUAUAUCUC | 0.22 |
| UAACAGGGGGCCACAGCAGAGGCGUUCACGUCGCAGCCCCUGUUGGAUUCUGGUGAAUCUGCGAAUUCUGCUGUAUAUCUC | 0.21 |
| UAACAGGGGGCCACAGCAGAGGCGUUCACGUCGCAGCCCCUGUUAGAUUCUGGUGAAUCUGUGAAUUCUGCAGUAUAUCUC | 0.04 |
| UAACAGGGGGCCACAGCAGAGGCGUUCACGUCGCAGCCCCUGUUAGAUUCUGGUGAAUCUGCGAAUUCUGCUGUAUAUCCC | 0.19 |
| UAACAGGGGGCCACAGCAGAGGCGUUCACGUCGCAGCCCCUGUCAGAUUAUGGUGAAUCUGCGAAUUCUGCCGUAUAUCAC | 0.44 |
| UAACAGGGGGCCACAGCAGAGGCGUUCACGUCGCAGCCCCUGUCAGAUUUUGGUGGAUCUGCGAAUUCUGCUGUAUAUCAC | 0.27 |
| UAACAGGGGGCCACAGCAGAGGCGUUCACGUCGCAGCCCCUGUCAGAUUUUGGCGAAUCUGCGAGUUCUGCUGUAUAUCUC | 0.1 |
| UAACAGGGGGCCACAGCAGAGGCGUUCACGUCGCAGCCCCUGUCAGAUUCUGGUGAAUUUGCGAAUUCUGCAGCAUAUCUC | 0.38 |
| UAACAGGGGGCCACAGCAGAGGCGUUCACGUCGCAGCCCCUGUCAGAUUCUGGUGAAUCUGGGAAUUCAGCUGAAUAUCUC | 0.05 |
| UAACAGGGGGCCACAGCAGAGGCGUUCACGUCGCAGCCCCUGUCAGAUUCUGGUGAAUCUGUGAAUUCUGCUGUAUGUCUC | 0.16 |
| UAACAGGGGGCCACAGCAGAGGCGUUCACGUCGCAGCCCCUGUCAGAUUCUGGUGAAUCUGUGAAUUCAGCUGUAUAUCUC | 0.13 |
| UAACAGGGGGCCACAGCAGAGACGUUCGCGUUGCAGCCCCUGUCAGAUUCUGGUGAAUCUGCGUAUUCUGCUGUACAUCUC | 0.1 |
| UAACAGGGGGCCACAGCAGAGACGUUCACGUCGCGGCCCCUGCCAGAUUCUGGUGGAUCUGCGAAUUCUGCUGUAUAUCUC | 0.19 |
| UAACAGGGGGCCACAGCAGAGACGUUCACGUUGCAGCCCCUGUCAGAUUCUGGUGAAUCUGCGAAUUCUGCUGUAUAUCUC | 0.08 |
| UAACAGGGGGCCACAGCAGAGACGUUCACGUCGCAGCCCCUGUCAAAUUCUGGUGAAUCUGCGAAUUCUGCUGUGUAUCUC | 0.06 |
| UAACAGGGGGCCACAGCAGAGACGUUCACGUCGCAGCCCCAGUCAGAUUCUGGUGAAUCUGCGAACUCUGCUGUAUAUCUC | 0.06 |
| UAACAGGGGGCCACAGCAGAGACGUUCACGUCGCAGCCCCUGUCAGAUUCUGGUGAAUCUGCGAAUUCUGCUGUACAUCUC | 0.1 |
| UAACAGGGGGCCACAGCAGAGCCGUUCACGUUGCAGCCCCCGUCUGAUUCUGGUGAAUCUGCAAAUUCUGCUGUAUAUCUC | 0.24 |
